# Some of the results follow. At the low end of the ranking, values are background and their order means little.
# Biological target: T1, GST-Rok (full length) (UniProt O34857)
# T1 sequence: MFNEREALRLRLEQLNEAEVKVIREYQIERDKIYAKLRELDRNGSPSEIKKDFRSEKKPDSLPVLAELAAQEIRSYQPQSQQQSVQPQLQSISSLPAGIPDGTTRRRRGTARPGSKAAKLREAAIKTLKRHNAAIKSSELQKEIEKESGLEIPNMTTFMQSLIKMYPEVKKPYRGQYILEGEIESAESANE
# Experiment: protein binding microarray;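 note: rank score from −0.5 (least bound) to 0.5 (best bound)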
# Details: Rok is a gene silencer of Bacillus subtilis; high values mean tight binding; most listed sequences are background and not binding sites; double strand, one strand shown
row,Sequence,binding signal [E-score]
1,CCCGTGAG,-0.246
2,CGTAGCCA,-0.253
3,CCCTTAGG,-0.332
4,AATTAAGA,0.156
5,CGTCGCGC,0.0557
6,CGAGAACG,-0.0349
7,CAACGGAA,0.0501
8,CACAGACG,0.0562
9,ACTTATGG,0.102
10,AGGGTTGG,-0.183
11,AATCCATG,0.108
12,ATATGACC,0.165
13,GCCCGGGC,-0.292
14,ATGACGTG,-0.0428
15,CGGTCAAC,0.0109
16,GTTCTTAA,0.122
17,CCTACCCA,0.0514
18,GTAACCGA,0.00566
19,AACGCTCA,0.000114
20,ATTAATAA,0.182
21,TCAAGGAA,-0.162
22,GCGTGGCC,-0.265
23,GCTTAGGA,-0.0994
24,CAGTCCGC,-0.319
25,CTCGTTGA,0.0441

row,Sequence,binding signal [E-score]
1,CCGGTTCC,-0.18
2,ACTTTTAC,0.224
3,ACTGATAA,0.273
4,TCGCGCCA,-0.0522
5,CTAATAGC,0.2
6,ATACACAA,0.191
7,AGCATACG,0.116
8,AAAACACC,0.0147
9,ACTATACC,0.292
10,ATCAGAAT,0.133
11,TTACAGAA,0.259
12,TATCAAGA,0.227
13,CGAGTGTA,0.104
14,AGACTCGC,-0.177
15,AAACAATC,0.019
16,AATGACAG,-0.0787
17,ACACCTGA,0.0581
18,CGGATATC,0.209
19,GTTGCGTA,0.074
20,ATTTGTAC,0.329
21,TGACCGCA,-0.16
22,AAGACTTC,-0.0321
23,AAGCCGGC,-0.22
24,AGGCAGGA,-0.042
25,GCGACTAC,0.0185

row,Sequence,binding signal [E-score]
1,GCCGATAC,0.0839
2,ATGGAAAC,0.128
3,ACCTCACC,-0.0233
4,AGCCTAGC,-0.245
5,ATTTGCCC,-0.0605
6,CCCGCTGC,-0.321
7,CCTATTAG,0.172
8,CACGATCG,-0.088
9,AAGAAGAG,-0.106
10,TGGTAGAA,0.468
11,AGTCCCTA,-0.0971
12,CGACCGCA,-0.0937
13,CTACTAAA,0.357
14,CGTCCATC,-0.274
15,AGGGCAAA,0.0546
16,GCTAGGGA,-0.194
17,CCGCAAAG,-0.224
18,AATAGACG,-0.0243
19,GCGGGTGA,-0.235
20,CAGACTAC,0.127
21,AGGAACCG,-0.143
22,CTTATAAA,0.0863
23,GGGGCACC,-0.364
24,ACGGCTCG,-0.211
25,GCGAGTAA,0.115

row,Sequence,binding signal [E-score]
1,GGGTCATA,-0.0384
2,CGTCAGAA,-0.0471
3,TAGCCGGA,-0.0641
4,CAGAATGC,0.0167
5,GAGACCCC,-0.406
6,ATACTGTA,0.34
7,ATCCCCTG,-0.118
8,GTTGGATA,0.0397
9,CCCGTACC,-0.186
10,AATAGGTG,0.125
11,ATTGGACA,0.0304
12,AAGGATGA,-0.0336
13,GTAAGTAC,0.26
14,GTCTTTCA,-0.0505
15,GCCGAGAC,-0.166
16,AACACAAC,0.137
17,GCTTTGCC,-0.246
18,CACACCAG,-0.0365
19,CTGGTTAA,-0.044
20,CTATCTCC,0.0663
21,AAATACGG,0.21
22,CCTACGCA,-0.0529
23,CTAGTAAC,0.303
24,GATGGTAC,-0.0105
25,AACACACC,0.034

row,Sequence,binding signal [E-score]
1,ATCTCAAC,-0.0611
2,AATTGGTC,0.0556
3,AGTACCCA,-0.0295
4,AACCTGGT,-0.115
5,CAGAGCCA,-0.125
6,CCGCCATC,-0.429
7,TAAGTTGA,0.0854
8,ATCGACGG,-0.185
9,CGCAGGCC,-0.346
10,GAGTTCAA,-0.0299
11,AGCGCCGA,-0.244
12,CTGGTAGC,0.13
13,CGTAACCC,-0.19
14,ACCCTTCC,-0.327
15,AGTGCTCA,0.00402
16,ATCGCACA,-0.131
17,ACCACAGG,-0.127
18,ATTGGATC,-0.00455
19,CTCACGGC,-0.0922
20,AAAACACG,0.154
21,CCCTAGAG,-0.181
22,CGGCGAAA,-0.0329
23,ATATGATG,0.316
24,AAGACTGT,0.0852
25,ACTTTCGC,0.11

row,Sequence,binding signal [E-score]
1,AGATCTTA,0.215
2,CCACCTTA,-0.143
3,ATATTGAT,0.316
4,GAGGCGAA,-0.0953
5,CGATGTTA,0.0449
6,GATTGCCA,-0.0629
7,GATAATCA,0.101
8,AGAGCATG,-0.101
9,GAGCCGTA,-0.0838
10,CTACACTC,-0.0726
11,GTCTTGCA,-0.0304
12,AGGCACAC,-0.233
13,GGCTGTAC,-0.102
14,CAGGACCC,-0.285
15,GGCGACAA,-0.145
16,GTATACAC,0.218
17,CCCTGCTC,-0.27
18,CCGGTCTA,-0.0179
19,CTGAGGGA,-0.242
20,AACCAGAG,-0.187
21,AGAAAAAT,0.138
22,CACTTATA,0.329
23,CTCCCATA,-0.148
24,AGCCAGGC,-0.355
25,ATAATCCG,0.0239

row,Sequence,binding signal [E-score]
1,ATGGGCAG,-0.0688
2,AGGCAAGG,-0.428
3,AACGGTAT,0.211
4,AATTCGAT,0.104
5,CATGCCCG,-0.316
6,CCCTCGTA,-0.134
7,CGCTCCGA,-0.25
8,AAGAAAAG,0.064
9,CTAGTCGA,0.262
10,ACTTGCAG,0.0388
11,ACAACTAA,0.251
12,ACCCCGTA,-0.174
13,AGTAGAAG,0.228
14,AGAGTTCG,-0.0759
15,GCTCAGAA,-0.124
16,CCGTGGGC,-0.363
17,ACACAGGT,-0.0293
18,AGGTTCGC,-0.173
19,TCAGTGAA,-0.2
20,GATTTTAC,0.18
21,CTGGGTAC,-0.102
22,CCGTAGCG,0.0211
23,AGTCTAGC,0.0454
24,CACCCACC,0.0542
25,CTCCACCC,-0.287

row,Sequence,binding signal [E-score]
1,AGTGCGCC,-0.237
2,AGCCACAC,-0.288
3,CTCTTAGA,-0.265
4,GATGATCA,-0.0224
5,AGGCCTCA,-0.155
6,GATAGAGC,-0.173
7,ACGACAAT,0.0926
8,GAATGAAA,-0.00799
9,CCCCCTTC,-0.384
10,CCCGATTC,-0.238
11,ACAATAAT,0.262
12,AGTGCAAC,-0.235
13,ACATTCCA,0.0173
14,CAAAGGTG,-0.263
15,GGCAAACA,-0.145
16,CAGACTCA,-0.163
17,AAGTTCGT,0.129
18,CACTGATA,-0.0773
19,TAGCACTA,0.21
20,ACCGACTC,-0.0931
21,CCTCCTAA,-0.164
22,GCACTCCC,-0.318
23,AAACTCTG,0.137
24,CTTCCATA,0.121
25,ACTGGTGA,-0.0538

row,Sequence,binding signal [E-score]
1,CGATTAAA,0.0882
2,ACATGCCA,0.0568
3,ATTCGTCC,-0.224
4,GGCTACCA,0.216
5,ATTCGCAG,0.161
6,TTGAGCAA,-0.0216
7,CATTCGGA,-0.0335
8,ATTAATGC,0.332
9,AGGGACCG,-0.394
10,GGGCATAA,-0.0617
11,CTTCGAAA,-0.139
12,ATAACACG,0.22
13,TAACTCCA,0.0342
14,CTGAGCAG,-0.179
15,GAATTCGA,0.253
16,TAACCACA,0.108
17,AGTCCTCC,-0.288
18,ACAACTCA,0.097
19,AGTACACC,0.164
20,CCTTGGAG,-0.117
21,CAGCCAGA,-0.104
22,ACCTATCT,0.332
23,ATCGGTTA,0.00622
24,CACGTTTA,0.0471
25,AGGTGTTG,0.0952

row,Sequence,binding signal [E-score]
1,GCTTCCTA,0.0871
2,ATATTGAG,0.21
3,ATAGACCC,-0.0819
4,CCAAATTA,0.249
5,ATGAGCCA,-0.137
6,ACTCGAGC,-0.0141
7,ACAGGCAC,-0.282
8,CAAACTAA,0.378
9,CCTACTGC,0.174
10,CGGATTAA,0.0745
11,AGGGGGCA,-0.218
12,AAGCACGC,-0.0861
13,GAGTAGAC,-0.133
14,CTGTGAAA,-0.0415
15,CGTGTGGC,-0.101
16,CCTCCCGA,-0.258
17,CTGTATAC,0.216
18,CGGGCCAA,-0.208
19,GTCCCGAA,-0.0443
20,CATACTCA,0.223
21,ACAAGGGC,-0.212
22,TAATATCA,0.338
23,AACATTCG,0.0196
24,ATCCTCTA,0.0332
25,CTTATTTC,0.192

row,Sequence,binding signal [E-score]
1,CTTTCCCA,-0.248
2,CAGAAGCC,-0.306
3,CTAAGTAC,0.171
4,CGAATGCG,-0.134
5,ACAGTGAG,-0.00295
6,GGAGTCCC,-0.289
7,CAATCACC,-0.0817
8,GTATCCCA,0.131
9,ACTGTCCG,-0.0982
10,CACTACCC,-0.0231
11,ACGCCTTG,-0.298
12,CCCTATCC,-0.189
13,CACCCAGC,0.0934
14,GCTACCAC,0.188
15,AGGCAATG,-0.145
16,CCTCCTCG,-0.224
17,AGGCCCAG,-0.121
18,TGAACAAA,-0.0466
19,AAGACATC,-0.0531
20,CCGGAGAG,-0.227
21,TCTTAAGA,0.00924
22,CAGGGATA,-0.0119
23,CCGAAGAC,-0.161
24,ACATTGGC,-0.239
25,ACACAAAA,0.117

row,Sequence,binding signal [E-score]
1,TAATACTA,0.419
2,ATTTGTCA,0.14
3,ACCCGACG,-0.304
4,ACCCCCCG,-0.422
5,ACCACAGC,-0.0851
6,ACCGCGCA,-0.19
7,CTGTACAG,-0.0652
8,ACGAACCA,0.000876
9,ATCTTAAT,0.144
10,AGACTAAA,-0.0347
11,ACAAACAA,0.0396
12,AGGGACAG,-0.117
13,ACTAGGTG,0.223
14,GGGGAATA,-0.106
15,CTTCGGTC,-0.265
16,GCTGTCTA,-0.117
17,ACGGCCAA,0.084
18,AAAAGAAT,0.14
19,CGTCCCTC,-0.379
20,ACTCACTC,0.0821
21,GACTCTGA,-0.135
22,AATGTGAT,0.0808
23,CTGGGCGA,-0.199
24,CCGTTAGG,-0.371
25,CGCACTAA,0.297

row,Sequence,binding signal [E-score]
1,CAAGGGAC,-0.185
2,CCAAGGAC,-0.0933
3,GCCATTCA,0.0688
4,ATGCGTCA,0.0769
5,AATGATGT,0.118
6,CGTGTAAG,-0.00352
7,AGGACCCA,-0.17
8,ATACCTTA,0.218
9,AAGTGCGG,-0.0664
10,AGTGAGAT,-0.127
11,CCCGCCCC,-0.42
12,AACTCGAC,0.0292
13,TGGGTTAA,0.0662
14,CGCTATTC,-0.0744
15,GCGCACCC,-0.259
16,AGCTTTTA,0.0678
17,ACTCGCGC,0.0743
18,AAAGGGTG,-0.254
19,ACGACCGG,0.0184
20,CGAGTCCC,-0.305
21,ATGTGAGA,0.108
22,GATCTTAA,0.106
23,GATCAGCA,-0.184
24,GAGTGTTA,-0.0182
25,CTAGGCGC,-0.241

row,Sequence,binding signal [E-score]
1,CCGAGAAG,-0.183
2,CATTGGGC,-0.0545
3,ACAATTAA,0.239
4,GTAGCATA,0.168
5,AGCACGCT,-0.189
6,GAACACCC,-0.222
7,CTCAAATA,-0.0553
8,AGGTACGC,-0.161
9,CTCTCACC,-0.216
10,AACGCGTG,-0.0182
11,CTACACCC,0.0221
12,GACCCTAA,-0.321
13,GTGTGGGA,-0.0343
14,AGGTTGTA,0.285
15,CCGGATTC,-0.093
16,TGCGCTAA,-0.0338
17,CTAGGCGA,-0.138
18,CTAGCTCA,0.0558
19,GAGGACCA,-0.186

# Reference: PMC6212790
